T1: UNK ZnF1-6 (called full-length) (human, UniProt Q9C0B0 30-357)
T1 sequence: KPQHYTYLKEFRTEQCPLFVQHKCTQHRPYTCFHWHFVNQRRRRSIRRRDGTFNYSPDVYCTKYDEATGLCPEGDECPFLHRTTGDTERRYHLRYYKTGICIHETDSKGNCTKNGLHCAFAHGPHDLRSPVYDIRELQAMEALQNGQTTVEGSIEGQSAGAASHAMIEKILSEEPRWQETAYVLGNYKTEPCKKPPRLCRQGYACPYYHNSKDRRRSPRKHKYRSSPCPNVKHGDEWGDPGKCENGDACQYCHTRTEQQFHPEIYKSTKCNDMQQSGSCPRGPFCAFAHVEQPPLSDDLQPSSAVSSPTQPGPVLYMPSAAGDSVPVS

B1: chr21:36753219:36753320:-|3pUTR|ENSG00000159267|msi1|FALSE|bound_elsewhere (ssRNA)
RNA: GGGAGUUCUACAGUCCGACGAUCGUUUCAGAUUUACUCUGAAAUGUGGAGCAUUCCUGCAAGACUGUGCAGCUCACGGAAUAUAGAAGACAUGGCAUUUUACUCAGAAGUCAUAAGUUUUUGCCCCCCUCAUUUACCUCGUAUCAACAGAGGAUUGAGCAUCA
B2: ENSG00000070961:be:win_2551|CDS|ENSG00000070961|bound_else_gene|NA|bound_elsewhere_windowed (ssRNA)
RNA: GGGAGUUCUACAGUCCGACGAUCAGCAUCUCAAAAUUCCUUCAGUUCCAACUUACUGUUAAUGUAGUAGCAGUGAUUGUUGCUUUUACGGGCGCCUGCAUUACUCAAGACUCACCGCUUAAGGCUGUGCAGAUGCUGUGGGUACAACAGAGGAUUGAGCAUCA
B3: chr16:70157515:70157662:+|3pUTR|ENSG00000090857|msi1|total|mutant (ssRNA)
RNA: GGGAGUUCUACAGUCCGACGAUCCUCCCUAUAAUUUUCUUCAUCUCUUGCUAAUCUCUAUAAUAAGGUUGCUUUUUCUUUCUCCGUUGAGUAAACAAGUAAGCCACAGUGUUUGAAAGGGAAAAACCAUAUUGCCUUGUGUGUCAACAGAGGAUUGAGCAUCA
B4: chr18:5392435:5392536:-|3pUTR|ENSG00000082397|msi1|FALSE|unique (ssRNA)
RNA: GGGAGUUCUACAGUCCGACGAUCAAGCCUUAAACUGUACAGAAUUUCCACUGUAAUUAAAACUAUUUAGUGUUAGUUAUAAAUAGCCUUCAAAAAGAGAGAUUCUCCAUUACACGAUCACCUGCAUCACAGCCCAUGGUGAAUCAACAGAGGAUUGAGCAUCA
B5: chr1:149903635:149903737:-|3pUTR|ENSG00000159164|unk|total|mutant (ssRNA)
RNA: GGGAGUUCUACAGUCCGACGAUCGGCUGCUUUCUUUGGUGCCCUCCCCUCACCCCACUGCCGCUGUGACGUGUUGCCGUUUUCCGAUGUUUGUAAAAUGUUUAAAAAAAUGUUAAAAGGAAAAAAGUGAAAAUAACAAAAAAGCAACAGAGGAUUGAGCAUCA
B6: chr8:76864132:76864233:+|CDS|ENSG00000091656|msi1|FALSE|bound_elsewhere (ssRNA)
RNA: GGGAGUUCUACAGUCCGACGAUCUCAAGCUUGCACAAAGAGAAAACAAUCAAACAAGCAAUGAGAAAUGCCAAAGAGCAUGUUAGAUUAUUACCUCACUCAGUCUGCUCCCCUAAUCCUAACACCACAUCUACCUCGCAGUCUCAACAGAGGAUUGAGCAUCA
B7: chr7:152649051:152649153:-|CDS|ENSG00000196584|unk|total|mutant (ssRNA)
RNA: GGGAGUUCUACAGUCCGACGAUCAGCUCUGAAGAAAUAAUCAAAUACUGCCUGGGAAGAUUUUUUUUGGUGUACUGCAGCCGCCGCACCCACUUACUUCUUACACUUUACUCACCCGAAAGUAUGUUUUGCCGUCACCCAUCUCAACAGAGGAUUGAGCAUCA
B8: chr22:40861067:40861994:-|CDS|ENSG00000172404|control|control|control (ssRNA)
RNA: GGGAGUUCUACAGUCCGACGAUCGAAAGUGAUCAAGAAAGAGAAGCUGAAGAUAAUGGAGAGUUGACAUUUUUUCUUGUAAAUAGUGUGGCCAAUGAAGAGGGCUUUGCAAAAGAAUGCAGCUGGAGAACACAGUCAUUCAACCAACAGAGGAUUGAGCAUCA
B9: chr6:109481629:109481730:-|CDS|ENSG00000112365|unk|total|mutant (ssRNA)
RNA: GGGAGUUCUACAGUCCGACGAUCGCUCAGUUCUUAAAAGUCUAUGACCUGGUAAAGGCUUACACAGACUUCCAAAAUAAUCACCGCUCCCCAAAGCCAACAACUUUGAACACUGCUGGUGCCCCAGUGGUUGUUAUCUCUAAUCAACAGAGGAUUGAGCAUCA
B10: chr6:145382534:145384023:-|three_prime_utr|ENSG00000112425|control|control|control (ssRNA)
RNA: GGGAGUUCUACAGUCCGACGAUCUCAACAUGAUUUAACAGAUCUAUAUGUUAAAGGAGAAAAAGAUAUGUGGAUGCUAUCAAUAGUAGCUGAAAAGCAUUUUCAGAAAUCUGUAAGUAGAGGAAAUGUAUUCAUAUGUUUCUACAACAGAGGAUUGAGCAUCA
B11: chr17:29262523:29262623:-|3pUTR|ENSG00000108256|msi1_unk|FALSE|overlapping (ssRNA)
RNA: GGGAGUUCUACAGUCCGACGAUCACUUUGACUGAUAUUGUAAUUUUCAAAUGUAUAAUAUGUUUACAGAUGUGCCCUGCAUUUAGUCUGCCUUGUUCCUAUUUUGAUUUUUGUUGAGUCUCCUGCCUGCUUGCCAAAAGCUAGCAACAGAGGAUUGAGCAUCA
B12: chr12:6347307:6347408:-|3pUTR|ENSG00000111319|msi1|FALSE|unique (ssRNA)
RNA: GGGAGUUCUACAGUCCGACGAUCGUCUGCUCCUCCUCUUGAACUUGGGUGGGAAACCCCACCCAAAAGCCCCCUUUGUUACUUAGGCAAUUCCCCUUCCCUGACUCCCGAGGGCUAGGGCUAGAGCAGACCCGGGUAAGUAAACAACAGAGGAUUGAGCAUCA
B13: chr14:92163265:92163366:+|3pUTR|ENSG00000165934|msi1|FALSE|bound_elsewhere (ssRNA)
RNA: GGGAGUUCUACAGUCCGACGAUCUAAUAUCAGACUCGAAUUACUAUUUCAUUCUAUUUCAAAUGCUUAUAAAGCUACUAUUGUAGAUUAUAGUGUUAAUGCAAAGUUUACAGACUUUUGAUAUGGAAAACCAGAUAAAACAAUCAACAGAGGAUUGAGCAUCA
B14: ENSG00000198589:be:win_3351|CDS|ENSG00000198589|bound_else_gene|NA|bound_elsewhere_windowed (ssRNA)
RNA: GGGAGUUCUACAGUCCGACGAUCCAGUCCUACUGAGGAAGCUAAUCUACCCACAGAGCUCCAAGAUAACAGUUUGUCUCCAGCUGCAUCUGAAGCCGGUGAAAAACUGGACAUGUUUGGUAAUGAUGACAAAUUAAUAUUUCACAACAGAGGAUUGAGCAUCA
B15: chr17:5489330:5489445:+|CDS|ENSG00000167842|unk|total|mutant (ssRNA)
RNA: GGGAGUUCUACAGUCCGACGAUCACGUUGACUUUCUUUGAUGAGCUUCAUAAUGUUGGCAGAGAUCAUGGGACCCGUGAUUUCCGGGAGAGUUCCGUAUCCCUGGUUCAGAACUCCAGAAAACUACAGAACAUCCGAGACAAUCAACAGAGGAUUGAGCAUCA
B16: chr12:54350855:54350965:+|3pUTR|ENSG00000111481|msi1|total|mutant (ssRNA)
RNA: GGGAGUUCUACAGUCCGACGAUCUUGCCCUGACAUUUUUGUAAAUUCUGUGCCCUUUGCUGCCGCUACACUUCAGAUUAAAGCCGGAGAAAGAAUGUGCUGAGUGUUUUCCUCCCUUUGCCUCUACCUGGCCCUCAUCCCAACCAACAGAGGAUUGAGCAUCA
B17: chr7:128862928:128863052:+|CDS|ENSG00000128524|unk|FALSE|unique (ssRNA)
RNA: GGGAGUUCUACAGUCCGACGAUCUAAGCUCAUCGCAGUGAUCGGAGACGAGGACACGGUGACUGGUUUCCUGCUGGGCGGCAUAGGGGAGCUUAACAAGAACCGCCAUCCCAAUUUCCUGGUGGUGGAGAAGGAUACAACCAUCAACAGAGGAUUGAGCAUCA
B18: ENSG00000198589:be:win_2051|CDS|ENSG00000198589|bound_else_gene|NA|bound_elsewhere_windowed (ssRNA)
RNA: GGGAGUUCUACAGUCCGACGAUCUACUGACUAUGCAUGAGGAUGACAAUCUAAUGGAUGUCCUACAGCUGCUUGUUGCAUUAAUGUCAGAACACCCUAACUCUAUGAUUCCUGCUUUUGACCAAAGGAAUGGGUUACGUGUUACAACAGAGGAUUGAGCAUCA
B19: chr4:143221337:143221438:+|3pUTR|ENSG00000170185|unk|FALSE|unique (ssRNA)
RNA: GGGAGUUCUACAGUCCGACGAUCUUGAAAGGUAAUAGAUUUUCCAGAAGUAAAAUCUGAUGGUUCUAAAUCAAUCAAUGUGAUAGUUCAUUUUUAACUCUUAGAAGAAUUCAGAGGAAAUUAACCCAGCUAAGUAAAAAAUCUCAACAGAGGAUUGAGCAUCA
B20: chr5:138511037:138511180:-|CDS|ENSG00000120705|unk|total|mutant (ssRNA)
RNA: GGGAGUUCUACAGUCCGACGAUCCACGGGCAAGUACUGUUUUGGCGUUGAAGAUACACUAAAGGCUUUGGAAAUGGGAGCUGCCGAAAUUCUAACCGUCUAUGAAAAUCUGGAUAUAAUGAGAUAUGUUCUUCAUUGCCAAGGCAACAGAGGAUUGAGCAUCA
B21: chr10:58277235:58277315:+|CDS|ENSG00000122873|msi1_unk|total|mutant (ssRNA)
RNA: GGGAGUUCUACAGUCCGACGAUCUAAAGAUCAUCGAAAUAAAGCUAUGAUAAACCUUCACAUCCAGAAAGACAACCCCAAGACCGUACAUGCUUUUGACAUGGAGGAUUUGGGAGAUAAAGCUGUGUACUGCCGUUGUUGGAGCAACAGAGGAUUGAGCAUCA
B22: ENSG00000124766:be:win_3151|3pUTR|ENSG00000124766|bound_else_gene|NA|bound_elsewhere_windowed (ssRNA)
RNA: GGGAGUUCUACAGUCCGACGAUCUUUCUCAGUGUAUUUUUGUAAAAAAUAUAUAAAGGGGGUGUUAAUCGGUGUAAAUCGCUGUUUGGAUUUCCUGAUUUUAUAACAGGGCGGCUGGUUAAUAUCUCACACAGUUUAAAAAAUCAACAGAGGAUUGAGCAUCA

The other results are listed elsewhere or left out.

The target of this assay is T1, UNK ZnF1-6 (called full-length). The assay is described as follows: nsRBNS (natural sequence RNA bind-n-seq); RBNS binding buffer (assumed for nsRBNS): 25 mM Tris pH 7.5, 150 mM KCl, 3 mM MgCl2, 0.01% Triton X-100, 500 ug/ml BSA, 20 U/ml SUPERase-In, 4 C; UNK is unkempt and MSI1 is Musashi-1; names of the RNAs are library labels; protein concentration not given here; high values mean tight binding.
Molecule B1 gave a binding signal of 0.445 enrichment R.

B2 gave a binding signal of 0.519 enrichment R.

In turn, B3 returned a binding signal of 0.629 enrichment R.

Regarding B4, the binding signal came out at 1.27 enrichment R.

On to B5, for which the binding signal is 0.594 enrichment R.

B6: the binding signal was found to be 0.638 enrichment R.

For the molecule B7, the binding signal came to 1.12 enrichment R.

As to B8, the binding signal was 0.645 enrichment R.

In turn, B9 came in with a binding signal of 0.451 enrichment R.

On to B10, for which the binding signal is 0.457 enrichment R.

Regarding B11, the binding signal was determined as 0.807 enrichment R.

In turn, B12 came in with a binding signal of 1.13 enrichment R.

The molecule B13 displayed a binding signal of 0.421 enrichment R.

Consider B14, for which the binding signal was 0.341 enrichment R.

B15: the binding signal was 0.491 enrichment R.

Take B16: the binding signal is 0.678 enrichment R.

B17 had a binding signal of 0.777 enrichment R.

For B18, the binding signal amounted to 0.35 enrichment R.

Molecule B19 displayed a binding signal of 0.783 enrichment R.

The molecule B20 had a binding signal of 0.633 enrichment R.

B21 gave a binding signal of 0.467 enrichment R.

The molecule B22 displayed a binding signal of 0.577 enrichment R.

The values are drawn from paper PMC12136788.
